Measurements from the RNAGym collection of RNA variant scans (doi:10.1101/gad.245936.114).
This sample is rich in variants without activity.

B1: tRNA (parent)
chain: CUCUCGGUAGCCAAGUUGGUUUAAGGCGCAAGACUUUAAUUUAUCACUACGAAAUCUUGAGAUCGGGCGUUCGACUCGCCCCCGGGAGAUUUUUUCCUCGAGCAA

Variants of: B1
Assay: nonsense suppression (GFP-seq) (ratio to wild type); higher = more function; SUP4oc tRNA, yeast GFP reporter sort-seq
In short: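 Yeast carrying genome-integrated SUP4oc tRNA variants from a library with ~3% random mutations were grown in raffinose/galactose medium with 80 mg/L adenine. Each strain also carried a galactose-driven GFP ochre reporter and RFP. Cells were sorted into GFP/RFP bins, and each bin was Illumina-sequenced (phred ≥30). Nonsense suppression (GFPSEQ) is the bin median GFP/RFP, weighted by each variant's estimated cell share per bin, relative to wild-type SUP4oc; variants needed ≥100 reads and ≥30 cells.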

Variant | nonsense suppression
C29G U70C C80U | ≤ 0.026
C29G U70G | ≤ 0.026
C29G U71A | ≤ 0.026
C29G U71C C79G | ≤ 0.026
C29U A30G G65C U71C | ≤ 0.026
C29U A30U | 0.124
C29U A31C U71A U76C | ≤ 0.026
C29U A33G | ≤ 0.026
C29U A33G G61U C80U | ≤ 0.026
C29U A33U | 0.0316
C29U A33U G85A G86A | ≤ 0.026
C29U A54C | ≤ 0.026
C29U A54C U55C C56A G84C | ≤ 0.026
C29U A54G | ≤ 0.026
C29U A62G G69U | ≤ 0.026
C29U A74U C75A | ≤ 0.026
C29U A87U | ≤ 0.026
C29U A89U | ≤ 0.026
C29U C56A | ≤ 0.026
C29U C56G U58C A60C U63A C72U G84C | ≤ 0.026
C29U C68A G73U | ≤ 0.026
C29U C68U A89U | ≤ 0.026
C29U C68U C79A A89G | ≤ 0.026
C29U C72G A74C | ≤ 0.026

Variant | nonsense suppression
C29U C79A | ≤ 0.026
C29U C83A G84U | ≤ 0.026
C29U C83U | 0.0384
C29U G32C U55C C64G | ≤ 0.026
C29U G32U U57A G61U A89U | ≤ 0.026
C29U G59C G61C | ≤ 0.026
C29U G59U A89C | ≤ 0.026
C29U G61A U76G C77G | ≤ 0.026
C29U G61C | 0.0261
C29U G61U | 0.754
C29U G65U A87G | ≤ 0.026
C29U G66C C80A G88C | ≤ 0.026
C29U G66C G88C | ≤ 0.026
C29U G73A | 0.238
C29U G73U G88A | ≤ 0.026
C29U G85A | 1.14
C29U U35A U57C | ≤ 0.026
C29U U35C G78C A89G | ≤ 0.026
C29U U35C U58G C64U G66C | ≤ 0.026
C29U U35G | ≤ 0.026
C29U U35G U76C | ≤ 0.026
C29U U55A C79U G88A | ≤ 0.026
C29U U55C U76G G78C | ≤ 0.026
C29U U57A G61C | ≤ 0.026

Variant | nonsense suppression
C29U U57C | ≤ 0.026
C29U U57G | ≤ 0.026
C29U U57G G69C | ≤ 0.026
C29U U71C | 0.0323
A30C A31U | ≤ 0.026
A30C A33U U57A | ≤ 0.026
A30C A54C G61C U63G | ≤ 0.026
A30C A54C G73A | ≤ 0.026
A30C C34G G88U | ≤ 0.026
A30C C34G U71G A74U | ≤ 0.026
A30C C56U G65C | ≤ 0.026
A30C C64A G69U U71A | ≤ 0.026
A30C C68U C79G | ≤ 0.026
A30C C68U C82U | ≤ 0.026
A30C C72A A74G | ≤ 0.026
A30C C75G G88U | ≤ 0.026
A30C C79A | ≤ 0.026
A30C C79A A87U | ≤ 0.026
A30C C83A | ≤ 0.026
A30C G32A U76G | ≤ 0.026
A30C G32U U76C | ≤ 0.026
A30C G61A G84U G85C | ≤ 0.026
A30C G61U G66U U70G C79A A89G | ≤ 0.026
A30C G66A | ≤ 0.026

Variant | nonsense suppression
A30C G69C | ≤ 0.026
A30C G69C C83G | ≤ 0.026
A30C G73C | ≤ 0.026
A30C G85A | ≤ 0.026
A30C G85U | ≤ 0.026
A30C G86U | ≤ 0.026
A30C U35G | ≤ 0.026
A30C U55A | ≤ 0.026
A30C U55C | ≤ 0.026
A30C U55C C75G C82G | ≤ 0.026
A30C U57G C68U | ≤ 0.026
A30C U58G | 1.02
A30C U63C | ≤ 0.026
A30C U63C C68A | ≤ 0.026
A30C U70G | ≤ 0.026
A30G A31C G65A C81G A89G | ≤ 0.026
A30G A33G | 0.046
A30G A33U | ≤ 0.026
A30G A33U C56A U58C A74G | ≤ 0.026
A30G A54C U71A G86A | ≤ 0.026
A30G A62C G88A | ≤ 0.026
A30G A62G | ≤ 0.026
A30G A62G C68U | ≤ 0.026
A30G A74C | 0.0554

Variant | nonsense suppression
A30G C34A | ≤ 0.026
A30G C56A C77G | ≤ 0.026
A30G C56A G61C C81U | ≤ 0.026
A30G C68G | ≤ 0.026
A30G C75U | 1.19
A30G C80U C83G | ≤ 0.026
A30G C82U | 0.0497
A30G G32C G88U | ≤ 0.026
A30G G32U U63C C64G | ≤ 0.026
A30G G59A G73C | ≤ 0.026
A30G G61A G65C C72G C81A | ≤ 0.026
A30G G61A G67U A87G | ≤ 0.026
A30G G61C C80U G84A | ≤ 0.026
A30G G65A G73U A74G A89C | ≤ 0.026
A30G G67A A74C | ≤ 0.026
A30G G69A A89U | ≤ 0.026
A30G G85A | 0.793
A30G G85C | ≤ 0.026
A30G G86C | ≤ 0.026
A30G G88A | ≤ 0.026
A30G U35G G84U A87U | ≤ 0.026
A30G U35G U63G A89C | ≤ 0.026
A30G U55C G67A G86U | ≤ 0.026
A30G U57A C68G U71A C80G | ≤ 0.026

Variant | nonsense suppression
A30G U57C C68G U71C | ≤ 0.026
A30G U58A G69C A74G | ≤ 0.026
A30G U70C | ≤ 0.026
A30G U71A | 0.05
A30G U71C | 0.035
A30U A33U G88A | ≤ 0.026
A30U A54C | 0.0467
A30U A60G | 0.27
A30U A60G U76G | ≤ 0.026
A30U A60U | 0.769
A30U A60U C68U | 0.0354
A30U A62G | ≤ 0.026
A30U A89U | 0.0434
A30U C34G A60C G78C | ≤ 0.026
A30U C34U C75A | ≤ 0.026
A30U C64U | ≤ 0.026
A30U C68G | ≤ 0.026
A30U C77G | 0.0332
A30U C81A G88U | ≤ 0.026
A30U G32U A60U | ≤ 0.026
A30U G32U C56A U58G | 1.11
A30U G32U G67A U76A C79U | ≤ 0.026
A30U G61C | ≤ 0.026
A30U G65C | ≤ 0.026

Variant | nonsense suppression
A30U G69A G84C | ≤ 0.026
A30U G69U C80U | ≤ 0.026
A30U G73C | ≤ 0.026
A30U G78C G85C | ≤ 0.026
A30U U55G G78C A89C | ≤ 0.026
A30U U57A G86C | ≤ 0.026
A30U U57C | ≤ 0.026
A30U U57C C72U | ≤ 0.026
A30U U58A | 0.89
A30U U58A G78U | 0.776
A30U U63A | 0.157
A30U U70G A74G | ≤ 0.026
A30U U76C | ≤ 0.026
A30U U76G G85U | ≤ 0.026
A31C A33G U76A | ≤ 0.026
A31C A54G | ≤ 0.026
A31C A60U | 0.222
A31C A60U C75A | 1.23
A31C A62C | ≤ 0.026
A31C A62G | ≤ 0.026
A31C A62G G78A | ≤ 0.026
A31C A62G U76A C81U | ≤ 0.026
A31C A87C | ≤ 0.026
